Laboratory results: patent publication US12221481B2, “CD19 binding molecules and uses thereof” (Novartis AG, priority 2019, dated 2025)
Where two headings read alike, the source gives them in different places.

What was measured:
T cells [1] = experiment: Cytokine release assay with Karpas422 cells (Example 18); type: cell-based, human; conditions: E:T 1:1, 48 hours
Method: Briefly, huCD19-expressing Nalm6 target cells were harvested and resuspended in RPMI medium with 10% FBS. 20,000 target cells per well were plated in a flat-bottom 96-well plate. Human pan T effector cells were isolated via MACS negative selection from cryopreserved PBMC then added to the plate to obtain a final E:T ratio of 5:1. Co-cultured cells were incubated with serial dilutions of all constructs and controls. After an incubation of 24 hr at 37° C., 5% CO2, the supernatants were harvested by centrifugation at 300×g for 5 min for subsequent analysis.
A multiplexed ELISA was performed according to the manufacturer's instructions using a V-PLEX Proinflammatory Panel 1 Kit (MesoScale Discovery #K15049D).
A cytokine release assay was performed as in Example 10, but with Karpas422 cells at a final E:T ratio of 1:1 and an incubation of 48 hours.

T cells [2] = experiment: TBM and BBM binding to T cells (flow cytometry); parameters: species or system human; conditions: 33 μg/ml-0.005 μg/ml, on ice 1 hour
Method: Peripheral blood mononuclear cells (PBMCs) previously isolated and cryopreserved from 2 Leukopak donors (Hemacare) were thawed and Pan T cells were isolated by negative selection using the Pan T cell Isolation Kit, human (Miltenyi Biotec, Cat #130-096-535) following the manufacturer's protocol. T cells were resuspended in FACS Buffer and 100,000 cells were added to each well of a 96 well round bottom plate. A dilution series of CD3med TSP1, CD3hi TSP1, CD3hi BSP1, and CD3hi TSP1C ranging from 33 μg/ml-0.005 μg/ml was added to cells and incubated on ice for 1 hour. Cells were washed twice, resuspended in 100 μl of anti-human IgG secondary antibody and incubated on ice for another hour. After the incubation, cells were washed twice, resuspended in 100 pI of fixable viability dye and incubated on ice for 30 min. After washing twice again, cells were resuspended in 120 μl of FACS buffer. The cells were then run on BD LSR Fortessa and data was analyzed using FlowJo to determine the MFI of anti-human IgG secondary antibody, which was plotted against antibody concentration.

Nalm6 KO target cells = experiment: RTCC against Nalm6 KO lacking hCD19 (Example 22); type: cell-based, human; conditions: antigen-negative, E:T 1:1, 48 hour
Method: The purified TBMs were compared across multiple donor effector cells. Briefly, huCD19-expressing Nalm6 and Karpas422 target cells were engineered to overexpress firefly luciferase. Cells were harvested and resuspendend in RPMI medium (Invitrogen #11875-093) with 10% FBS. 5,000 target cells per well were plated in a flat-bottom 384-well plate. Human pan T effector cells were isolated via negative selection (Stemcell Technologies #17951) from two donors from cryopreserved PBMCs that were separated from a leukopak (Hemacare #PB001F-1) by Ficoll density gradient centrifugation. Purified T cells were then added to the plate to obtain a final E:T ratio of 3:1, 1:1, 1:3 or 1:5. Co-cultured cells were incubated with serial dilutions of all constructs and controls. For normalization, average maximum luminescence refers to target cells co-incubated with effector cells, but without any test construct. After an incubation of 48, 72 or 96 hr at 37° C., 5% CO2, OneGlo luciferase substrate (Promega #E6120) was added to the plate. Luminescence was measured on an Envision plate reader after a 10 minute incubation. Percent specific lysis was calculated using the following equation: Specific lysis (%)=(1−(sample luminescence/average maximum luminescence))*100
Nalm6 KO was generated from Nalm6 parental cell line by using CRISPR-CAS9 technology and was confirmed to lack hCD19 expression. […]

[3] = system: OCI-LY-19 diffuse large B-cell lymphoma (DLBCL) tumor; conditions: mouse, in vivo, iv

B1: CD3hi TSP1: Trispecific binding molecule: NEG258-based CD19 Fab, CD3hi anti-CD3 scFv, CD58 IgV domain, knob-into-hole silenced hIgG1 Fc (antibody)
heavy: QVQLVQSGAEVKKPGASVKVSCKASGYTFTTYWIQWVRQAPGQRLEWMGAVYPGDADTRYTQKFQGRVTLTADRSASTAYMELSSLRSEDTAVYYCGRDAGLEYYALDYWGQGTLVTVSSASTKGPSVFPLAPSSKSTSGGTAALGCLVKDYFPEPVTVSWNSGALTSGVHTFPAVLQSSGLYSLSSVVTVPSSSLGTQTYICNVNHKPSNTKVDKRVEPKSCGGGGSGGGGSEVQLVESGGGLVQPGGSLKLSCAASGFTFNTYAMNWVRQASGKGLEWVGRIRSKYNNYATYYADSVKDRFTISRDDSKSTLYLQMNSLKTEDTAVYYCVRHGNFGNSYVSWFAYWGQGTLVTVSSGGGGSGGGGSGGGGSGGGGSQAVVTQEPSLTVSPGGTVTLTCRSSTGAVTTSNYANWVQQKPGQAPRGLIGGTNKRAPWTPARFSGSLLGDKAALTLSGAQPEDEAEYFCALWYSNLWVFGGGTKLTVLGGGGSDKTHTCPPCPAPELLGGPSVFLFPPKPKDTLMISRTPEVTCVVVAVSHEDPEVKFNWYVDGVEVHNAKTKPREEQYASTYRVVSVLTVLHQDWLNGKEYKCKVSNKALAAPIEKTISKAKGQPREPQVCTLPPSREEMTKNQVSLSCAVKGFYPSDIAVEWESNGQPENNYKTTPPVLDSDGSFFLVSKLTVDKSRWQQGNVFSCSVMHEALHNHYTQKSLSLSPGK
light: EIVMTQSPATLSVSPGERATLSCRASQDVGTAVAWYQQKPGQAPRLLIYWASTRHTGIPARFSGSGSGTEFTLTISSLQSEDFAVYFCQQYANFPLYTFGQGTKLEIKRTVAAPSVFIFPPSDEQLKSGTASVVCLLNNFYPREAKVQWKVDNALQSGNSQESVTEQDSKDSTYSLSSTLTLSKADYEKHKVYACEVTHQGLSSPVTKSFNRGEC
chain: SQQIYGVVYGNVTFHVPSNVPLKEVLWKKQKDKVAELENSEFRAFSSFKNRVYLDTVSGSLTIYNLTSSDEDEYEMESPNITDTMKFFLYVLESGGGGSDKTHTCPPCPAPELLGGPSVFLFPPKPKDTLMISRTPEVTCVVVAVSHEDPEVKFNWYVDGVEVHNAKTKPREEQYASTYRVVSVLTVLHQDWLNGKEYKCKVSNKALAAPIEKTISKAKGQPREPQVYTLPPCREEMTKNQVSLWCLVKGFYPSDIAVEWESNGQPENNYKTTPPVLDSDGSFFLYSKLTVDKSRWQQGNVFSCSVMHEALHNHYTQKSLSLSPGK
- cytokine secretion by T cells (IFN-γ, IL-2, TNF-α) (T cells [1]): induced cytokine secretion by T cells
- level of cytokine secretion compared between constructs (T cells [1]): highest levels of cytokine secretion
- binding to T cells (MFI of anti-human IgG secondary antibody) (T cells [2]): strongest binder
- cytotoxic activity (target-independent killing) (Nalm6 KO target cells): minimal activity

B2: CD3med TSP1: NEG258-based TBM with CD3med anti-CD3 scFv and CD58 IgV CD2-binding arm (antibody)
heavy: QVQLVQSGAEVKKPGASVKVSCKASGYTFTTYWIQWVRQAPGQRLEWMGAVYPGDADTRYTQKFQGRVTLTADRSASTAYMELSSLRSEDTAVYYCGRDAGLEYYALDYWGQGTLVTVSSASTKGPSVFPLAPSSKSTSGGTAALGCLVKDYFPEPVTVSWNSGALTSGVHTFPAVLQSSGLYSLSSVVTVPSSSLGTQTYICNVNHKPSNTKVDKRVEPKSCGGGGSGGGGSEVQLVESGGGLVQPGGSLKLSCAASGFTFNTYAMNWVRQASGKGLEWVGRIRSKYNNYATYYADSVKDRFTISRDDSKNTAYLQMNSLKTEDTAVYYCVRHGNFGNSYVSWFAHWGQGTLVTVSSGGGGSGGGGSGGGGSGGGGSQAVVTQEPSLTVSPGGTVTLTCGSSTGAVTSSNYANWVQQKPGQAPRGLIGGTNKRAPWTPARFSGSLLGGKAALTLSGAQPEDEAEYYCALWYSNLWVFGGGTKLTVLGGGGSDKTHTCPPCPAPELLGGPSVFLFPPKPKDTLMISRTPEVTCVVVAVSHEDPEVKFNWYVDGVEVHNAKTKPREEQYASTYRVVSVLTVLHQDWLNGKEYKCKVSNKALAAPIEKTISKAKGQPREPQVCTLPPSREEMTKNQVSLSCAVKGFYPSDIAVEWESNGQPENNYKTTPPVLDSDGSFFLVSKLTVDKSRWQQGNVFSCSVMHEALHNHYTQKSLSLSPGK
light: EIVMTQSPATLSVSPGERATLSCRASQDVGTAVAWYQQKPGQAPRLLIYWASTRHTGIPARFSGSGSGTEFTLTISSLQSEDFAVYFCQQYANFPLYTFGQGTKLEIKRTVAAPSVFIFPPSDEQLKSGTASVVCLLNNFYPREAKVQWKVDNALQSGNSQESVTEQDSKDSTYSLSSTLTLSKADYEKHKVYACEVTHQGLSSPVTKSFNRGEC
chain: SQQIYGVVYGNVTFHVPSNVPLKEVLWKKQKDKVAELENSEFRAFSSFKNRVYLDTVSGSLTIYNLTSSDEDEYEMESPNITDTMKFFLYVLESGGGGSDKTHTCPPCPAPELLGGPSVFLFPPKPKDTLMISRTPEVTCVVVAVSHEDPEVKFNWYVDGVEVHNAKTKPREEQYASTYRVVSVLTVLHQDWLNGKEYKCKVSNKALAAPIEKTISKAKGQPREPQVYTLPPCREEMTKNQVSLWCLVKGFYPSDIAVEWESNGQPENNYKTTPPVLDSDGSFFLYSKLTVDKSRWQQGNVFSCSVMHEALHNHYTQKSLSLSPGK
- cytokine secretion by T cells (IFN-γ, IL-2, TNF-α) (T cells [1]): induced cytokine secretion by T cells
- binding to T cells (MFI of anti-human IgG secondary antibody) (T cells [2]): followed by CD3med TSP1
- cytotoxic activity (target-independent killing) (Nalm6 KO target cells): minimal activity
- Survival ([3]; 0.003 mg/kg): 8/8
- Survival ([3]; 0.01 mg/kg): 8/8
- Survival ([3]; 0.03 mg/kg): 8/8
- Survival ([3]; 0.1 mg/kg): 8/8
- Survival ([3]; 0.3 mg/kg): 8/8
